Out of some 360,000 compounds screened, about 11,000 (3.1%) were called active. The shares of active, inactive and inconclusive entries below differ from those in the screen. Calls come from the whole dose curve; as a rule, active = well fitted inhibition curve with a large enough effect; inconclusive = small, poorly fitted or top-dose-only effect; inactive = no such curve, though single readings can be large or run the other way. Potencies of inconclusive entries are left out as doubtful fits. Where a structure was tested more than once in an assay, its records may differ in their call.
What follows are compounds tested against Schistosoma mansoni thioredoxin glutathione reductase (TGR) (UniProt Q962Y6) (assay: qHTS Assay for the Inhibitors of Schistosoma Mansoni Peroxiredoxins). Conditions: purified TGR, DTNB reduction, TNB absorbance 405 nm; activity change, negative = inhibition: at 114 µM (top of the series) unless noted.
Outline: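 Kinetic colorimetric format: TGR-catalysed, NADPH-driven DTNB reduction monitored via TNB absorbance. Enzyme dispensed at 20 nM; compound exposure 15 min at room temperature before reaction start.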
% is set by controls: 0 for no effect and ±100 for the full control effect; potency is the fitted concentration of half-maximal effect; tags give direction and shape of the fitted curve.
Note: nearly all actives have a fitted effect of over 60% in size.

SMILES	Potency	activity change, negative = inhibition
Cn1c(NC(=O)c2ccc(Br)o2)cc(=O)n(C)c1=O	inconclusive [inhibitor, single point]	
COc1ccc(Cn2c(SCC#N)nc3ccc(N4CCOCC4)cc3c2=O)cc1	inconclusive [inhibitor, partial curve]	
CC(=O)c1ccc(NC(=O)CSc2nc(-c3ccccc3F)nc3c2c(=O)n(C)c(=O)n3C)cc1		inactive: -9.4%
Cc1sc2ncnc(Sc3nnnn3-c3ccc(Cl)cc3)c2c1C	inconclusive [inhibitor, full curve, poor fit]	
Cc1ccc(NC(=O)CN2C(=O)C(=O)N(C3CCCC3)C2=O)cc1Cl	inconclusive [inhibitor, full curve, poor fit]	
COc1ccc(C(c2c(O)nc[nH]c2=O)c2c(O)nc[nH]c2=O)cc1	inconclusive [inhibitor, full curve]	
CC(C)(C)C1CCc2c(sc3c2C(=O)NC(c2ccco2)N3)C1 (stereo unspecified)	inconclusive [inhibitor, partial curve]	
CCc1ccc2c(CN3CCc4ccccc43)cc(=O)oc2c1	inconclusive [inhibitor, partial curve]	
c1ccc(CSc2nnc3ccc(-c4ccco4)nn23)nc1	inconclusive [inhibitor, full curve]	
CCCN1C(=O)C(O)(c2c(C)[nH]c3ccccc23)c2ccccc21 (stereo unspecified)	active: 44.7 µM	
N=c1c[n+](C2CCCCC2)[n-]o1		inactive: 1.59%
COc1ccc(S(=O)(=O)NCC(c2cccs2)S(=O)(=O)c2ccc(C)cc2)cc1F (stereo unspecified)	inconclusive [inhibitor, full curve, poor fit]	
C=CCN1C(=O)/C(=C\C(C)=C\c2ccccc2)SC1=S		inactive: -9.57%
COc1ccc(-c2cn3nc(N4CCCC(C(=O)Nc5ccc(Cl)cc5C)C4)sc3n2)cc1 (stereo unspecified)	inconclusive [inhibitor, single point]	
CCOC(=O)C1(C)NC(c2ccc(O)cc2)C2C(=O)N(c3ccccc3)C(=O)C21 (stereo unspecified)	inconclusive [inhibitor, partial curve]	
CCCc1nnc(NC(=O)C23CC4CC(CC(C4)C2)C3)s1		inactive: 23.2%
O=c1n(Cc2ccc(F)cc2Cl)c2ccccc2c2nc(-c3ccccc3)nn12		inactive: -4.42%
Cn1c(=O)c2c(nc(NCCc3ccccc3)n2Cc2cccc(Br)c2)n(C)c1=O		inactive: -7.24%
O=C(CN1CCN(c2ccc(O)cc2)CC1)Nc1ccc(-c2ccccc2)cc1	inconclusive [inhibitor, partial curve]	
CCOC(=O)C1=C(c2ccccc2)OC(N)=C(C#N)C1c1ccc(Cl)s1 (stereo unspecified)	inconclusive [inhibitor, full curve]	
CCCCN(CC)CCCNC(=O)c1cn(CC(C)C)c(=O)c2c1c1ccccc1n2C	active: 31.6 µM	
CC(C)(C)NC[C@@H](O)COc1cccc2c1CCCC2=O		inactive: -1.7%
Cc1ccc2c(c1)CC1(CN2C)C(=O)OC2(CCCCC2)OC1=O	inconclusive [inhibitor, full curve, poor fit]	
CCc1cc2c(SCC(=O)c3ccccc3)ncnc2s1	inconclusive [inhibitor, single point]	

SMILES	Potency	activity change, negative = inhibition
CN(C)C(CNC(=O)CCCc1c[nH]c2ccccc12)c1ccco1 (stereo unspecified)	inconclusive [inhibitor, single point]	
CCC(C)(C)n1nnnc1C(c1ccc(O)c(OC)c1)N1CCc2ccccc2C1 (stereo unspecified)	active: 0.251 µM	
CCOC(=O)C1CCCN(C(=O)CCCn2nc(C)n3c(cc4sccc43)c2=O)C1 (stereo unspecified)		inactive: 5.96%
CC(=O)NCCC1CCN(c2nc3nonc3nc2N(C)Cc2ccccc2)CC1	inconclusive [inhibitor, partial curve]	
COc1ccc(OC)c(N2Cc3ccccc3C2)c1	inconclusive [inhibitor, partial curve]	
Cc1ccc(C)c(/C=C2\N=C(c3ccccc3F)OC2=O)c1	inconclusive [inhibitor, partial curve]	
COC(=O)c1c(N2C(=O)CC(Sc3ccccc3C(=O)O)C2=O)sc2c1CCCC2 (stereo unspecified)	active: 2.51 µM	
Cc1ccccc1-c1nc(CN2CCCC2c2ccc(F)cc2)c(C)o1 (stereo unspecified)	inconclusive [inhibitor, partial curve]	
Cc1ccc(S(=O)(=O)N2CCCN(c3nc4cc(C)ccc4cc3C#N)CC2)cc1		inactive: -1.32%
CCOc1ccc(/C(O)=C2/C(=O)C(=O)N(CCCn3ccnc3)C2c2cccs2)cc1Cl (stereo unspecified)	inconclusive [inhibitor, partial curve]	
CN(C)CCN1C(=O)C(O)=C(C(=O)c2cc3ccccc3o2)C1c1ccc(N(C)C)cc1 (stereo unspecified)	inconclusive [inhibitor, partial curve]	
CC(C)N1CC(C(=O)Nc2ccc(Cl)c([N+](=O)[O-])c2)CC1=O (stereo unspecified)	inconclusive [inhibitor, partial curve]	
O=C1CS/C(=N\N=C\c2ccco2)N1c1ccccc1	active: 14.1 µM	
CCCOC(=O)c1c(N)sc2c1CCC2	inconclusive [inhibitor, partial curve]	
COc1ccc(Nc2nc3ccc(Cl)cc3nc2-n2nc(C)cc2C)cc1		inactive: 6.79%
Nc1c(S(=O)(=O)c2ccccc2)c2nc3ccccc3nc2n1/N=C/c1ccco1	inconclusive [inhibitor, single point]	
O=C(COC(=O)Cn1cnc2ccccc21)Nc1ccc2c(c1)OCCO2	inconclusive [inhibitor, full curve, poor fit]	
S=C(NCc1ccco1)Nc1ccc(Cl)cc1	inconclusive [inhibitor, partial curve]	
Cc1cc(C(=O)CN2CCN(CC(=O)Nc3cccc(F)c3)CC2)c(C)n1C1CC1	inconclusive [inhibitor, partial curve]	
O=C(Nc1cccc2ccccc12)c1cnccn1		inactive: 1.32%
COc1ccc(N2C(=O)NC(=O)/C(=C/c3cccc(OC(=O)c4cccs4)c3)C2=O)cc1Cl	active: 14.1 µM	
Cc1cc(C)c(NC(=O)CSc2nnc(Cc3cccn3C)n2-c2ccc(F)cc2)c(C)c1	inconclusive [inhibitor, single point]	
O=C(NCc1ccco1)c1cnn2c(C(F)(F)F)cc(-c3cccs3)nc12	inconclusive [inhibitor, full curve]	
Cc1cc(C)nc(SCc2nc3nc(C)cc(C)n3c2Br)n1	inconclusive [inhibitor, full curve]	

SMILES	Potency	activity change, negative = inhibition
Cc1ccnc(NC(=O)c2cc3cc(F)ccc3s2)c1		inactive: -1.6%
CC(=O)N(C)c1cccc(-c2ccc3nnc(C)n3n2)c1		inactive: 0%
COc1ccc(N=C(C)C2=C(O)CSC2=O)cc1	inconclusive [inhibitor, partial curve]	
COc1ccc(S(=O)(=O)N2CCOC2CNC(=O)C(=O)NCc2ccco2)cc1 (stereo unspecified)	inconclusive [inhibitor, partial curve]	
COc1ccc(/C=N/n2nnnc2N)c(OC)c1		inactive: -10.2%
Nc1nnn(Cc2ccccc2)n1		inactive: -3.15%
Cc1ccc(C2C3CSCC=C3C(C#N)=C(N)C2(C#N)C#N)cc1 (stereo unspecified)	inconclusive [inhibitor, full curve]	
COc1ccccc1Nc1nc(N)nc(CN(C)C2CCCCC2)n1	inconclusive [inhibitor, partial curve]	
Cc1c(O)c(=O)c2ccccc2n1C		inactive: 1.5%
COc1cc(NC(=O)c2cccnc2)c(OC)cc1NC(=O)c1ccc(Br)cc1		inactive: -5.81%
COc1cccc(-c2nc(CS(=O)(=O)CC(=O)N3CCOCC3)c(C)o2)c1	inconclusive [inhibitor, partial curve]	
CCOC(=O)c1c(NC(=O)c2cc(-c3ccc(OC)c(OC)c3)on2)sc(C)c1C	inconclusive [inhibitor, single point]	
O=C(O)CNC(=O)c1ccc(NC(=O)/C(=C/c2cccc([N+](=O)[O-])c2)NC(=O)c2ccco2)cc1	inconclusive [inhibitor, partial curve, poor fit]	
O=C(N/N=C/C=C/c1ccco1)c1ccccc1Cl	inconclusive [inhibitor, full curve, poor fit]	
COc1ccc(C2NC(=S)NC(C)=C2C(=O)c2ccccc2)cc1OC (stereo unspecified)	inconclusive [inhibitor, full curve]	
COc1cc(-c2ccc3sc(-c4ccsc4)c(C#CCO)c3c2)cc(OC)c1OC	inconclusive [inhibitor, single point]	
C/C(CC(=O)Nc1ccc2c(c1)OCO2)=N\NC(=O)c1ccccc1N	inconclusive [inhibitor, partial curve]	
COc1ccccc1Nc1nc(N)nc(CCl)n1	active: 28.2 µM	
CCCCNC(=S)Nc1cc([N+](=O)[O-])ccc1C	inconclusive [inhibitor, partial curve, poor fit]	
CC(=O)NNC(=O)CSc1nnc(-c2ccccc2)c(-c2ccccc2)n1	inconclusive [inhibitor, partial curve]	
COc1cccc(Nc2cc(C)nc3ccccc23)c1		inactive: -2.16%
Cc1ccc2nsnc2c1NC(=O)c1ccc(-c2cc(Cl)ccc2Cl)o1	active: 39.8 µM	
CSc1sc(C)cc1C1C(C#N)=C(N)N(c2cccnc2)C2=C1C(=O)CCC2 (stereo unspecified)	inconclusive [inhibitor, partial curve]	

Source: PubChem BioAssay AID485364 (National Center for Advancing Translational Sciences (NCATS), 2010)
